We go through eight compounds from the antibiotic and cytotoxicity screens of Wong et al. (2023).

Some of the results follow.

The subject of assay [1] is HSkMC (human skeletal muscle cells). Description: cytotoxicity call (relative viability < 0.9). As to conditions: 10 µM.
Assay [2] deals with S. aureus RN4220. Briefly: growth inhibition call (relative growth <= 0.2). As to conditions: 50 µM.

As for `C[C@H](CO)N1C[C@H](C)[C@H](CN(C)S(=O)(=O)c2cn(C)cn2)Oc2ccc(NC(=O)Cc3cn(C)c4ccccc34)cc2CC1=O`, the cytotoxicity call in assay [1] was “inactive”. The growth inhibition call in assay [2] was “inactive”.

Take `O=C(C[C@H]1C=C[C@H](NC(=O)c2ccc3c(c2)OCO3)[C@H](CO)O1)NCc1ccc(Oc2ccccc2)cc1`: in assay [1], the cytotoxicity call is “inactive”. In addition, the growth inhibition call in assay [2] is “inactive”.

Turning to `C[C@@H]1CN([C@@H](C)CO)S(=O)(=O)c2ccc(C#CC3CCCCC3)cc2O[C@@H]1CN(C)C(=O)Cc1ccncc1`, in assay [1], the cytotoxicity call is “inactive”. Also, in assay [2], the growth inhibition call was “inactive”.

As for `COCCCNC(=O)[C@@]1(Sc2ccc(C)cc2)CC(=O)N(Cc2cc(C(F)(F)F)cc(C(F)(F)F)c2)[C@@H]1c1ccc(CO)cc1I`, the cytotoxicity call in assay [1] is “inactive”. Also, in assay [2], the growth inhibition call was “inactive”.

Take `O=C(O)CN1CCCCCC1=O`: the cytotoxicity call in assay [1] is “inactive”. Also, in assay [2], the growth inhibition call was “inactive”.

`COc1ccc(NC(=O)N(C)C[C@@H]2Oc3ncc(-c4cccc(C(F)(F)F)c4)cc3C(=O)N([C@H](C)CO)C[C@@H]2C)cc1`: in assay [1], the cytotoxicity call was “inactive”. For the same compound, the growth inhibition call in assay [2] was “inactive”.

Take `CO[C@@H]1CN(C)C(=O)c2cc(NC(C)=O)ccc2OC[C@@H](C)N(S(=O)(=O)c2cn(C)cn2)C[C@H]1C`: the cytotoxicity call in assay [1] was “inactive”. Besides, in assay [2], the growth inhibition call is “inactive”.

As to `Nc1ncn([C@H]2C[C@H](O)[C@@H](CO)O2)c(=O)n1`, in assay [1], the cytotoxicity call was “inactive”. Also, in assay [2], the growth inhibition call was “inactive”.
